Measurements taken from PubChem BioAssay AID938 (National Center for Advancing Translational Sciences (NCATS), 2007).
In all, about 73,000 compounds went through this assay and about 1,800 (2.5%) were called active. This list was built around the results that the source calls inconclusive (neither active nor inactive); the mix of calls is not that of the screen. The call rests on the fitted dose curve; in most records, active means well fitted activation curve with a large enough effect; inconclusive means small, poorly fitted or top-dose-only effect; inactive means no such curve, though single readings can be large or run the other way. No potency is given beside an inconclusive call; the fits are too rough.

experiment: qHTS Assay for Agonists of the Thyroid Stimulating Hormone Receptor: Activators of Intracellular cAMP Concentrations in Parental HEK 293; settings: parental HEK293 CNG cAMP sensor, membrane potential fluorescence; activation: at 57.1 µM (top of the series) unless noted; further: nearly all actives have a fitted effect of over 55% in size; on activation: % of control where 0% means no effect
In short: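 Parental HEK 293 cells stably expressing a cAMP-gated CNG channel were loaded with membrane potential dye containing 100 uM RO 20-1724 for 60 min. Compound added for 30 min; depolarization read as fluorescence intensity at 590 nm.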
Potency means the concentration at half of the fitted maximal effect; tags describe the fitted curve by direction and shape.

SMILES	Potency	activation
O=C(Nc1ccccc1N1CCCCC1)c1cccs1	active: 25.1 µM	
CCOc1ccc(S(=O)(=O)n2ccc(C)n2)c2ccccc12	inconclusive [activator, single point]	
Cc1ccc(N2CC(C(=O)Nc3ccccn3)CC2=O)cc1 (stereo unspecified)	inactive	
CC(=O)N1CCc2ccc(C(=O)CN3CCN(c4cccc(C)c4C)CC3)cc21	inconclusive [activator, single point]	
COc1ccc2c(c1)sc1nc(-c3ccccc3)cn12	inconclusive [activator, partial curve]	
CN(C)C(=O)c1ccc(-c2cncnc2NCc2cccnc2)cc1	inconclusive [activator, single point]	
CCC/C=C(\CCC)C(NC(=O)c1ccc(C(=O)OC)cc1)c1ccc(C(=O)OC)cc1 (stereo unspecified)		inconclusive: 36.3% [activator]
CCCC/C=C/C(NC(=O)c1ccccc1)c1ccccc1 (stereo unspecified)	inconclusive [activator, partial curve]	
CCCn1c(-c2ccc(F)cc2)nc2c(NCCN3CCCCC3)nc(C)nc21	inconclusive [activator, partial curve]	
CCOc1cc(C2C(C#N)=C(N)Oc3n[nH]c(-c4ccccc4)c32)ccc1O (stereo unspecified)	inactive	
CS(=O)(=O)N(CC(=O)N1CCCCCC1)c1cccc(Br)c1	inconclusive [activator, single point]	
O=C(COc1ccc(Cl)cc1)Nc1ccccc1N1CCOCC1	active: 15.8 µM	
Cc1ccc2c(CC(=O)OCc3csc(C)n3)coc2c1	inconclusive [activator, single point]	
Cc1cc(Cl)c(S(=O)(=O)NC(C(=O)O)c2ccccc2)cc1OCC(N)=O (stereo unspecified)	inactive	
Cc1cccc(-c2noc(CN(C)S(=O)(=O)c3cc(Cl)ccc3Cl)n2)c1	inconclusive [activator, partial curve]	
COc1ccc(CNc2ccnc(-c3ccoc3)n2)c(OC)c1	inconclusive [activator, partial curve]	
CC(=O)Nc1ccc(S(=O)(=O)NC(CC(=O)O)c2ccc(OC(C)C)cc2)cc1 (stereo unspecified)	inactive	
CCOC(=O)c1nn(-c2ccc(OC)cc2)c(=O)c2c(N)scc12	inactive	
COc1cccc(-c2ccc3ncnc(N4CCNCC4)c3c2)c1	inactive	
Cc1ccc(C(=O)CSc2nnc(-c3ccco3)n2Cc2ccccc2)cc1	active: 12.6 µM	
Cc1cc(/C=N/n2cnnc2)c(C)n1-c1ccc(OCc2ccccc2F)cc1	inconclusive [activator, partial curve]	
